The other results are listed elsewhere or left out.
system: PfHDP1 homeodomain (GST-tagged); test: gcPBM binding intensity (ln(normalized median fluorescence intensity)); higher = stronger DNA binding
Summary of the method: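 After 1 h on an Agilent 4 × 180k array of primer-extended double-stranded 36-bp intergenic genomic probes and negative controls, bound GST-tagged P. falciparum DNA-binding domains were detected with Alexa488 anti-GST antibody and scanned at 488 nm. The domains had been expressed in E. coli, and binding took place in 1× PBS with 1% milk, 0.2 mg/ml BSA, 0.5% salmon testes DNA and 0.03% Triton X-100. Binding intensity is the highest Masliner-normalised natural-log median intensity across replicate spots of either probe orientation.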

Going from “TGTATTATATATGTGTGTACATATTTTTTTTTTTTT [XGTACX_site3351]” to “ATACAAATTTATATTTCACACATTATTATATACTTA [CACACA_site6034]”, the “gcPBM binding intensity (ln)” value rises from 6.54 to 6.69.

Going from “TCTGAAAATTAGAAAAGTACAAAATGGTATAGGAAA [XGTACX_site4396]” to “AAATTATTTCAAATGTTGCACTAAAAATAAAATTAT [GTGCAC_site9460]”, the “gcPBM binding intensity (ln)” value rises from 6.82 to 8.78.

Going from “ATTAGTATATTTCTCTGTACTTACATTAAAATATAA [XGTACX_site2217]” to “TTTTATCAATAAATTCGTACACATGAACTAGAGAGT [XGTACX_site5758]”, the “gcPBM binding intensity (ln)” value rises from 6.41 to 6.76.

Going from “TTTTTATTTATATTTCATTGAAGTTAAATTATTTTA [XGTACX_negctrl_site575]” to “TACATTCTAATAATTGCACACTGGTTATTAAAAGGA [CACACA_site1614]”, the “gcPBM binding intensity (ln)” value rises from 5.88 to 9.45.

Compared with “TCCTTAAAATATGGTTGTACGTACATCCTAGGTGTT [XGTACX_site7068]”, “AATTTAATATTCATCTCTAAAGCTATAACAATTACT [CACACA_negctrl_site1079]” is lower in “gcPBM binding intensity (ln)” value: 6.52 for the first, 6.07 for the second.

Going from “AAAAAAAAAAATACTTGTACTTATATAATATATTAT [XGTACX_site8333]” to “AAGAAAATATAAAATGCACACTATAAATTGTATATA [CACACA_site7928]”, the “gcPBM binding intensity (ln)” value rises from 6.16 to 9.72.

Going from “AAAAAAAAAAAAAATTGTACATTAAATTAAAAGAAA [XGTACX_site8708]” to “TGTTGTTCCAATTTTTGTACATAAAACATATATATA [XGTACX_site5719]”, the “gcPBM binding intensity (ln)” value rises from 6.14 to 7.04.

Going from “TTTTTTTTTTTGGCTAGTACATATGTATTTAAAATG [XGTACX_site7770]” to “GGTGAAATTATTTCTACATGCAGAAATAATTAATTA [TGCATGCA_site194]”, the “gcPBM binding intensity (ln)” value falls from 6.41 to 6.4.

First: AATTTAATATAATGCACACATAAAAAAAAAATCAAA [CACACA_site1]
Second: AAATTATTTCTTTGCGCATGTAGCTTTTATACTATT [TGCATGCA_site819]
The “gcPBM binding intensity (ln)” value of the first is higher: 9.95 for the first, 7.44 for the second.

“ACATAAATAATAAAAACACACATATGTACCTATATA [CACACA_site6982]” and “AATACATGCTAAAAACGTACACGTATAAAATTATAT [XGTACX_site3169]” are the same in “gcPBM binding intensity (ln)” value: 6.55 for the first, 6.55 for the second.

First: TTACATTTTTGAAATAGATACATACACGTGTATGTA [CACACA_negctrl_site1311]
Second: GACATTAAAATGAAATATACATATATATGTATATAT [TGCATGCA_negctrl_site601]
The “gcPBM binding intensity (ln)” value of the first is lower: 6.49 for the first, 6.61 for the second.

First: CATATTTGTATATGCACACATAAATTTTTCCATTTC [CACACA_site3467]
Second: AAATTTTTAAACAGCACACATAAATATAATATATAT [CACACA_site2208]
The “gcPBM binding intensity (ln)” value of the first is higher: 10.2 for the first, 6.73 for the second.

Compared with “AAAATTAACCGTAACACACACACATATATATATATA [CACACA_site3964]”, “TATATGTTTACTTAATGTACTTACATTTTTATAACA [XGTACX_site1100]” is lower in “gcPBM binding intensity (ln)” value: 9.17 for the first, 6.41 for the second.

Going from “AAACAAAAAAACTACAGTACTTTTTTCAATTCCCCT [XGTACX_site7541]” to “TTATTAATTTTTATTTTTAAATCACAAAAGATATAA [CACACA_negctrl_site787]”, the “gcPBM binding intensity (ln)” value falls from 6.58 to 5.82.

First: ACATAAATAATAAAAACACACATATGTACTTATATA [CACACA_site8581]
Second: AATACTTTTTATTTAGTGCATAAGAAAATATAAATC [GTGCAC_site9875]
The “gcPBM binding intensity (ln)” value of the first is lower: 6.38 for the first, 10.3 for the second.

Compared with “TATAAAATATGTATGAGGAATAAAATTAAAAAAAAA [TGCATGCA_negctrl_site178]”, “AAAAAAAAAAATTCGGTGCAATGTAATTAATGTAAA [GTGCAC_site9588]” is higher in “gcPBM binding intensity (ln)” value: 6.09 for the first, 9.83 for the second.

Going from “TCTTGTATACGGCATGCATGTTAGCACATACGGACA [TGCATGCA_site146]” to “TTTTTAAAACCTTACATACACACAAATATATATATA [CACACA_site678]”, the “gcPBM binding intensity (ln)” value rises from 6.69 to 8.4.

Compared with “TGAATTCATAGCAGTTGTACATTGCATGAAGAAACG [XGTACX_site3312]”, “TGTTCCGAAGGTTGTACACACATAGAAATATACATA [CACACA_site3874]” is lower in “gcPBM binding intensity (ln)” value: 6.71 for the first, 6.65 for the second.

Going from “AATATAAGAATATATACACACATAAATACATACATA [CACACA_site4128]” to “ATATATATATATATTACACACATGTGCAATTAAAAT [CACACA_site1778]”, the “gcPBM binding intensity (ln)” value rises from 6.62 to 10.7.

Going from “TGGTAATACACATACACACACACATACACATATATA [CACACA_site7312]” to “AATTGAAAAATCAGCACACACACAAATACATACATA [CACACA_site3232]”, the “gcPBM binding intensity (ln)” value falls from 8.22 to 6.95.

First: GCTATATATTACAATCGTACAATATATATATATATA [XGTACX_site6730]
Second: AATTGATACCTTACATGTACATAATATATATAAATA [XGTACX_site321]
The “gcPBM binding intensity (ln)” value of the first is higher: 9.15 for the first, 7.23 for the second.

Compared with “TTTTTACATACAAATTAACACACATATAGAAAAGAG [CACACA_site8570]”, “GAACCATTTTTTGGTATACACACGTAATTATATAAT [CACACA_site8552]” is lower in “gcPBM binding intensity (ln)” value: 7.08 for the first, 6.8 for the second.

Reference: the supplement of paper PMC11417369
